In all, about 340,000 compounds went through this assay and about 120 (0.035%) were called active. Inconclusive means that the source gave no clear call. Such entries were picked first, then a sample of the others.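 The calls were made as follows: active = mean replicate inhibition at least 50% and at least half of replicates individually reaching 50%; inconclusive = only one of the two criteria met; inactive = neither criterion met.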
Test: E. coli Tat export inhibitors, primary screen, MC4100, TorA-mCherry reporter, fluorescence, single point (AID 488895);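 also: exported cargo escapes ClpAP degradation while cytoplasmic cargo is degraded and loses fluorescence; 0% = median of neutral control wells and 100% = median of NaSCN control wells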
Conditions: at 10 µM, active compounds read high
For `O=C(Cc1ccccc1Cl)c1ccccc1`, the inhibition was inconclusive: 27.6%.
With `O=C(Nc1cccc([N+](=O)[O-])c1)c1ccncc1` the inhibition was inactive: -6.56%.
For `C=C[C@](C)(CC[C@@]1(C)C(C)CC(OC2OC(C)C(OC3OC(COC(C)=O)C(O)C(O)C3O)C(O)C2O)[C@@]2(C)C(C)=CCCC12)OC1OC(C)C(O[C@@H]2O[C@@H](C)C(O)C(O)[C@H]2O)C(O)C1O` (stereo not given in full), the inhibition was inconclusive: 38.7%.
For `Nc1nonc1C(=O)NCCN=Cc1cc(Cc2ccccc2)cc(Br)c1O`, the inhibition was inconclusive: 32.5%.
For `C[C@@H]1O[C@@H](Oc2c(-c3ccc(O)c(O)c3)oc3cc(O)cc(O)c3c2=O)[C@H](O)[C@H](O)[C@H]1O`, the inhibition was inconclusive: 31.1%.
With `O=C(NCc1ccccn1)C1CC(c2ccccc2O)=NO1` (stereo not given) the inhibition was inconclusive: 27.6%.
For `Cc1ccc(C(=O)N2CCCC(CCC(=O)NCc3ccccc3F)C2)cn1` (stereo not given), the inhibition was inactive: 0.07%.
In the case of `O=C(CSc1ccc2nnc(-c3ccccn3)n2n1)Nc1ccc2c(c1)OCCO2`, the inhibition is reported as inactive: -3.04%.
For `Cc1ccc(C)c(NC(=S)N(CCc2ccncc2)C(C)C)c1`, the inhibition was inconclusive: 34.3%.
For `Cc1nc(NC(=O)/C=C/c2ccccc2)sc1C(=O)N(C)C`, the inhibition was inconclusive: 22.6%.
For `CCc1ccc2c(COC(=O)C3CC(=O)N(CCc4ccccc4)C3)cc(=O)oc2c1` (stereo not given), the inhibition was active: 62.9%.
For `O=C(O)c1cn(C2CCCCC2)c2ccccc2c1=O`, the inhibition was inactive: 2.36%.
In the case of `COC(=O)C[C@H]1c2cc(F)cc(F)c2S(=O)(=O)N1C1CCN(Cc2ccccc2)CC1`, the inhibition is reported as inconclusive: 29.3%.
For `CCOc1ccc(S(=O)(=O)N2CCCCC2)cc1NC(=O)CN1C(=O)NC(CC)(c2ccccc2)C1=O` (stereo not given), the inhibition was inconclusive: 32.5%.
In the case of `O=C(O)c1cn(C2CC2)c2cc(N3CCN(S(=O)(=O)c4ccc5c(c4)OCCO5)CC3)c(F)cc2c1=O`, the inhibition is reported as inactive: 12.4%.
With `CC(C)c1c(C(=O)N/N=C/C2CC=CCC2)nnn1-c1nonc1N` (stereo not given) the inhibition was inconclusive: 22.8%.
With `CCC1CCCCN1CCNC(=O)CNS(=O)(=O)c1ccc2nc(C)sc2c1` (stereo not given) the inhibition was inconclusive: 19.4%.
In the case of `COc1ccccc1NS(=O)(=O)c1ccc2[nH]c(=S)oc2c1`, the inhibition is reported as inconclusive: 37.6%.
With `CC(=O)Nc1ccc(Nc2cc(C)nc3c(-c4ccccc4)c(C)nn23)cc1` the inhibition was inactive: 3.78%.
With `COc1c(N2CCN(C(=S)Nc3ccc(F)cc3)C(C)C2)c(F)cc2c(=O)c(C(=O)O)cn(C3CC3)c12` (stereo not given) the inhibition was active: 76.3%.
For `O=C(Nc1cccc(NC(=O)c2cccnc2)c1)c1ccccc1`, the inhibition was inconclusive: 27.4%.
For `Cn1c(-c2c(N)n(CCCc3ccccc3)c3nc4ccccc4nc23)nc2ccccc21`, the inhibition was inactive: 2.78%.
In the case of `CC(Cc1ccccc1)NC(=S)CN1CCCC1=S` (stereo not given), the inhibition is reported as inconclusive: 31.9%.
In the case of `c1ccc(CC2CCN(C3=Nc4cccc5cccc3c45)CC2)cc1`, the inhibition is reported as inactive: 10.7%.
With `CC(C)CCOc1cccc(OCC(=O)Nc2ccncc2)c1` the inhibition was inactive: 2.67%.
With `O=C(CNC1CCCCCC1)Nc1ccccc1N1CCCCC1` the inhibition was inconclusive: 22.4%.
With `COc1ccccc1C(C[N+](=O)[O-])c1c[nH]c2ccccc12` (stereo not given) the inhibition was inconclusive: 29.8%.
With `O=C(COc1ccccc1)Nc1nnc(-c2ccc(F)cc2)o1` the inhibition was inactive: 2.25%.
In the case of `Cc1nn(C)c(C)c1/C=C/C(=O)O`, the inhibition is reported as inactive: -2.05%.
For `Cc1ccc(NC(=S)NC(=O)c2ccc(F)cc2)cc1S(=O)(=O)Nc1ccccc1Cl`, the inhibition was inconclusive: 24.4%.
In the case of `Cc1sc2ncnc(N/N=C/c3ccccc3O)c2c1C`, the inhibition is reported as inactive: -3.4%.
With `O=C(N1CCCC1)C12CC3CC(C1)CC(C(=O)N1CCCC1)(C3)C2` the inhibition was inconclusive: 22.6%.
For `O=C(NCCc1ccc(F)cc1)Nc1ccc([N+](=O)[O-])cc1`, the inhibition was inactive: 0.421%.
For `O=C(NNC(=O)c1ccco1)c1ccccc1`, the inhibition was inactive: 2.58%.
For `C[N+]1(C)CCC(=C(c2ccccc2)c2ccccc2)CC1`, the inhibition was inconclusive: 33.7%.
With `Cc1ccc(NC(=O)CN2C(=O)NC3(CCc4ccccc43)C2=O)cc1Cl` (stereo not given) the inhibition was inactive: 3.24%.
In the case of `O=C(Nc1ccc(Br)cc1)C1CC(O)CN1C(=O)Oc1ccccc1` (stereo not given), the inhibition is reported as inconclusive: 23.6%.
With `O=C(CSc1nnc(-c2ccccc2O)n1Cc1ccccc1)NNC(=O)c1ccccc1O` the inhibition was inactive: 17.9%.
For `O=c1[nH]c(=O)n([C@H]2C[C@H](O)[C@@H](CO)O2)cc1F`, the inhibition was inactive: 44.5%.
With `Oc1ccccc1-c1cc(-c2ccc(Cl)cc2)n[nH]1` the inhibition was inactive: -12.8%.
In the case of `CCN(Cc1ccccc1)S(=O)(=O)c1c[nH]c(C(=O)OC)c1`, the inhibition is reported as inconclusive: 27.3%.
With `CCn1c2ccc(C)cc2c2nnc(SCCN3CCOCC3)nc21` the inhibition was inconclusive: 35.8%.
In the case of `C=CCOc1cccc(C(=O)N2CCCC(CCC(=O)NCc3ccccc3F)C2)c1` (stereo not given), the inhibition is reported as active: 50.5%.
With `CCNC(=O)NC(=O)C(C)OC(=O)C1CCN(S(=O)(=O)c2ccccc2F)CC1` (stereo not given) the inhibition was inconclusive: 28.7%.
With `O=C(CSc1cn(CCNC(=O)c2c(F)cccc2F)c2ccccc12)NCC1CCCO1` (stereo not given) the inhibition was inconclusive: 26.8%.
With `O=[N+]([O-])c1ccc(C=Nc2ccc(Cl)c([N+](=O)[O-])c2)s1` the inhibition was inactive: 1.48%.
For `Cc1nc2scc(-c3ccccc3)c2c(=O)n1/N=C/c1ccco1`, the inhibition was inconclusive: 31%.
In the case of `CCOC(=O)N1CCC(N(CCN(C)C)C(=S)Nc2ccc(Oc3ccccc3)cc2)CC1`, the inhibition is reported as inconclusive: 25.3%.
In the case of `Cc1ccc(C)c(N2CCN(c3ccc4cc(S(=O)(=O)N5CCCCC5)ccc4n3)CC2)c1`, the inhibition is reported as inconclusive: 25.7%.
For `Cc1ccccc1NC(=O)CCN1CCN(CCO)CC1`, the inhibition was inconclusive: 26%.
With `COc1ccc(-c2cc(C(=O)Oc3ccc([N+](=O)[O-])cc3)c3ccccc3n2)cc1` the inhibition was inconclusive: 38.1%.
For `CCCCCCCn1c2c(c(=N)c3ccccc31)CCC2`, the inhibition was inactive: -2.33%.
For `Cc1ccc(/C=N/NC(=O)c2cc3c(ccc4ccccc43)o2)cc1[N+](=O)[O-]`, the inhibition was inactive: 10.6%.
In the case of `NC(=O)NOCc1ccccc1`, the inhibition is reported as inactive: 9.9%.
For `CC(C)CCOC(=O)C1C(c2ccccc2)C(C(=O)O)C1c1ccccc1` (stereo not given), the inhibition was inactive: 9.73%.
For `Cn1c(N)c(C(=O)COC(=O)c2nc(Cl)ccc2Cl)c(=O)n(C)c1=O`, the inhibition was inconclusive: 34.8%.
In the case of `C#CC(C)(CC)NC(=O)c1cc2cccc(CC=C)c2oc1=O` (stereo not given), the inhibition is reported as inconclusive: 24.1%.
For `O=C(O)c1cccc(NC(=O)c2ccccc2)c1`, the inhibition was inconclusive: 35.5%.
In the case of `O=C(N/N=C/c1cc2c3c(c1O)CCCN3CCC2)c1ccccc1O`, the inhibition is reported as inactive: -5.66%.
In the case of `CCOCCCNC(=S)NCCNc1nc2ccc(C)cc2cc1C#N`, the inhibition is reported as inconclusive: 25.7%.
In the case of `COC(=O)c1ccc(Cl)cc1NC(=O)/C=C/c1ccc(C)o1`, the inhibition is reported as inconclusive: 17.9%.
For `CCCCN1C(=O)C(CC(=O)NCC)SC1=Nc1ccccc1` (stereo not given), the inhibition was inconclusive: 26.1%.
For `Nc1nnc(N)c2ccccc12`, the inhibition was inactive: -6.29%.
For `COc1ccc(-c2c(-c3cc(OC)cc(OC)c3)n(C)c3ccc(-c4ccc(S(N)(=O)=O)cc4)cc23)cc1`, the inhibition was inconclusive: 17.9%.
In the case of `CC(=O)c1ccc(NC(=S)NC(C)c2ccc(Cl)cc2Cl)cc1` (stereo not given), the inhibition is reported as inconclusive: 22%.
With `CC(=O)N(Cc1ccc(F)cc1)c1cccc(C)c1C` the inhibition was inconclusive: 23.7%.
In the case of `CN(C)c1ccc(C(=O)n2nnc3ccccc32)cc1`, the inhibition is reported as inconclusive: 25.6%.
In the case of `O=C(Nc1nc(-c2ccccc2)cs1)C1COc2ccccc2O1` (stereo not given), the inhibition is reported as inactive: -5.7%.
In the case of `CCOC(=O)c1c(NC(=O)CCC(=O)O)sc2c1CC(C)(C)OC2`, the inhibition is reported as inconclusive: 27.7%.
With `CCCC(=O)NC(c1ccc(OC)c(OC)c1)c1cc(Cl)c2cccnc2c1O` (stereo not given) the inhibition was inactive: -5.24%.
In the case of `CCN(C(=O)c1cc([N+](=O)[O-])ccc1NCc1cccnc1)c1ccccc1`, the inhibition is reported as inactive: -1.18%.
In the case of `CC(C)(C)c1csc(NC(=O)Cn2cnc3ccccc3c2=O)n1`, the inhibition is reported as inactive: 0.902%.
For `Cc1[nH]nc(C(=O)NN=Cc2ccccc2Cl)c1N=NN(C)C`, the inhibition was inactive: -0.246%.
For `Cc1nn(-c2ccccc2)c(Cl)c1/C=N/NC(=O)c1ccn[nH]1`, the inhibition was inconclusive: 20.8%.
In the case of `N#C/C(=C(/O)CN1CCN(c2ccccc2F)CC1)c1nc(-c2ccc(Cl)cc2)cs1`, the inhibition is reported as inconclusive: 36.6%.
For `Cc1nnc(SCc2ccccc2CSc2nnc(C)s2)s1`, the inhibition was inconclusive: 19.2%.
For `C[C@@H]1O[C@@H]1P(=O)(O)O`, the inhibition was inconclusive: 43.5%.
For `O=C(CSc1ncnc2nc[nH]c12)c1ccc2ccccc2c1`, the inhibition was inconclusive: 31.9%.
For `CCN(CC)c1ccc(/C=N/NC(=O)c2nnn(-c3nonc3N)c2C(C)C)c(O)c1`, the inhibition was inactive: -32.4%.
With `CN(c1ccccc1C(=O)Nc1ccc(S(=O)(=O)N2CCOCC2)cc1)S(C)(=O)=O` the inhibition was inconclusive: 25%.
With `Cc1ccc(SCC(=O)c2cc(C)c(OC(=S)N(C)C)c(C)c2)cc1` the inhibition was inactive: 5.72%.
For `O=C(CP(=O)(c1ccccc1)c1ccccc1)Nc1cccc(CP(=O)(c2ccccc2)c2ccccc2)c1`, the inhibition was inconclusive: 22.1%.
For `CCc1ccccc1NC(=O)CSc1nnc(-c2ccco2)n1N`, the inhibition was inconclusive: 37.4%.
In the case of `c1ccc(NC(=NCc2ccco2)c2ccccc2)cc1`, the inhibition is reported as inconclusive: 23.8%.
For `Cc1ccc(NC(=O)Cn2nnc3ccccc3c2=O)cc1`, the inhibition was inactive: -1.33%.
